B1: DOMAIN7694e: one of the top nine most effective repressor domains (protein, listed as Columba livia)
chain: QDVVTFKDVAIYFSPEEWVRLSAGQRELYQEVMLDNYELVTSLDRESKLLYKMDPEEESCEGVPYSSADSGAPDSSSTSAC
B2: DOMAIN_10123: one of the top nine most effective repressor domains (protein, listed as Rattus norvegicus)
chain: ALVTFEDVAVRFTQEEWALLDPSQKILYRDVMRETYRNLTSVGINWECWDLEACFRSLGRNLRVQVVKRKCELTNSGPCAE
B3: DOMAIN_15507: one of the top nine most effective repressor domains (protein)
chain: SKAPITFGDLAIYFSQEEWEWLSPIQKDLYEDVMLENYRNLVSLGLSFRRPNVITLLEKGKAPWMVEPARRRRGPDSGSKV
modifications: Cebus imitator
B4: DOMAIN_17905: one of the top nine most effective repressor domains (protein)
chain: EMGLLTFRDIAIEFSLEEWQCLDCAQRNLYRDVMLENYRNLVSLGIAVSKPDLITCLEQNKESQNIKRNKMVAKHPVMHSH
modifications: Pan troglodytes
B5: DOMAIN_20505: one of the top nine most effective repressor domains (protein, listed as Chlorocebus sabaeus)
chain: SQESVAFEDVAVYFTTKEWAIMVPAERALYRDVMLENYEAVAFVAVPPTSKPALVSHLEQGKESCFIRPPGVLSRSDWRAG
B6: DOMAIN_27604: one of the top nine most effective repressor domains (protein, listed as Ailuropoda melanoleuca)
chain: LLTFEDVAVSFSEEEWELLDPPQKTLYNDVMQENYETVISLGLKLKNDTGNDQPISISALEMQASGSKVLRKARMKVAQKT
B7: DOMAIN_30173: one of the top nine most effective repressor domains (protein)
chain: VAFRDVIVDFTQEEWQQLKPAQKDLYRDVMMEIYWNLVSLDLETEGDMNEPDPEKDSWEDRTSIVVVEGLMRNGAQGYACEKAGIQGCRV
modifications: Phyllostomus discolor
B8: DOMAIN_718 (protein, listed as Pan paniscus)
chain: GSLEEGRRATGLPAAQVQEPVTFKDVAVDFTQEEWGQLDLVQRTLYRDVMLETYGHLLSVGNQIAKPEVISLLEQGEEPWS
B9: DOMAIN_7694 (protein, listed as Columba livia)
chain: B1 chain

Tests used:
B2M locus = format: cell-based; conditions: HEK293T, LTRP5 constructs without ADD domain, scaffold 316 spacer 7.165, days 6/7 to 26/27
HBEGF = format: cell-based, human; conditions: fold change in abundance of each domain in the library before and after diphtheria toxin selection; dXR repression of the HBEGF gene; criteria p-value <0.01 and log2(fold change) >2

Row | Molecule | B2M repression compared with LTRP5-ZIM3 (B2M locus) | Log2 (fold change) (HBEGF)
1 | B1 | most effective | –
2 | B2 | most effective | 3.6356
3 | B3 | most effective | 3.8531
4 | B4 | most effective | 2.5038
5 | B5 | most effective | 3.4989
6 | B6 | most effective | 2.8198
7 | B7 | most effective | 2.2538
8 | B8 | – | 3.9
9 | B9 | – | 3.7111
